From the supplement of paper PMC3334620
Over roughly 33,000 sequences, “E-score (-0.5 to 0.5)” has its median near -0.013; the highest 2% begin near 0.3. The list shows a part of the results.

Target: T1, Msn1 (UniProt P22148)
T1 sequence: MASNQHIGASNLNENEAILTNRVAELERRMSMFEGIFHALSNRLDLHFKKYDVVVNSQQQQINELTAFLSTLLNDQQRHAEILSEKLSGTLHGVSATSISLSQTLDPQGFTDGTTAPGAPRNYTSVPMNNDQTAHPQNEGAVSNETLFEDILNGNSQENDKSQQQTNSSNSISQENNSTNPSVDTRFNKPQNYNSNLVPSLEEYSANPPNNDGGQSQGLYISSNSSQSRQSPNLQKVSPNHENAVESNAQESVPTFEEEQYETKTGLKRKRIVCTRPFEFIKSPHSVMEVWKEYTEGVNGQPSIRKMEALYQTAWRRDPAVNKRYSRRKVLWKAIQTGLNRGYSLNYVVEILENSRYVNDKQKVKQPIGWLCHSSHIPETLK
Test: PBM E-score (8-mer binding enrichment) (E-score (-0.5 to 0.5)); higher = stronger / more preferred TF binding; most listed sequences are background and not binding sites
Conditions: protein concentration: 200 nM; construct: GST-full length
How it was run: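 Universal all-10-mer Agilent arrays, double-stranded by primer extension on fresh or once-stripped slides, were probed with about 100-200 nM GST-tagged yeast transcription factors made by PURExpress. Fluorescent anti-GST detected bound protein, and masliner normalised the scans. E-scores from the Universal PBM Analysis Suite were given to each ungapped eight-base word pooled with its reverse complement.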

Row | Sequence | PBM E-score
1 | GCCTGCTA | -0.162
2 | CCACCCAC | -0.245
3 | AGTGAGGC | -0.218
4 | AGCACGAA | 0.153
5 | GTAAGTAC | 0.139
6 | CTTATGCA | -0.0615
7 | ACCAAATC | 0.0268
8 | AGATTACC | 0.0696
9 | AGGTTCTC | -0.167
10 | CTTCGGCA | -0.00159
11 | CCTCCCAC | -0.127
12 | TAATGGTA | -0.131
13 | ATCTGGCC | -0.0799
14 | GTCTTGTA | 0.0838
15 | ATACCGCC | -0.0236
16 | TAATTGCA | 0.0515
17 | GTCTAGAC | 0.0977
18 | GCAGCTTA | -0.0395
19 | CCCCAAGA | -0.0452
20 | ACGAGTTA | -0.0191
21 | ATTGTATG | 0.14
22 | AATGCCTC | -0.129
23 | CAGCCGTC | -0.095
24 | CGCTATTC | 0.204
25 | TAGTAACA | 0.0837

Row | Sequence | PBM E-score
26 | AAATTGTA | 0.222
27 | GAAAGACA | 0.227
28 | CGCATGGC | -0.162
29 | CGGCAATC | -0.0265
30 | AGTATTTG | 0.0221
31 | GATGACGC | -0.0671
32 | AGAGCAAC | -0.275
33 | CCGGATCG | -0.0371
34 | ACGTAACT | -0.0733
35 | ATTGCGGG | -0.0275
36 | AACGTTAT | 0.0975
37 | CTCATTCC | -0.0923
38 | ACATACCA | 0.13
39 | GGTCGGGA | 0.0212
40 | GCAGTTCA | -0.101
41 | CGTTCTGA | -0.109
42 | CCGGGTTA | -0.0177
43 | AGAACTCG | 0.0198
44 | CAGGTTTC | -0.0386
45 | AAGACCGA | 0.135
46 | AGCGCTAT | 0.0204
47 | CTGTGAGA | 0.00231
48 | AAGCGCTC | -0.0777
49 | GTGTGCCA | -0.0737
50 | ATTATCCG | 0.246

Row | Sequence | PBM E-score
51 | AAGTCAAT | 0.07
52 | ATTCCTAC | -0.0406
53 | AGTCACGA | 0.0637
54 | CCGGAGGC | -0.104
55 | CTCTCACA | -0.0333
56 | CGTTACTA | 0.00496
57 | ATTCGGTG | 0.0437
58 | AGAGTCCA | -0.182
59 | AAGCTACT | -0.101
60 | ACCTTGCG | -0.062
61 | CTACCGGC | -0.209
62 | CAAAGAAA | 0.0621
63 | TTCCGGAA | 0.229
64 | AAATCCGT | 0.122
65 | GACTCTCC | -0.111
66 | GACTGACA | 0.0916
67 | GACAGAAC | 0.099
68 | ACCCCATG | -0.124
69 | CTGCAAGA | -0.119
70 | ATAACCAT | -0.0897
71 | GCTCCATA | -0.126
72 | CGTGCTCC | -0.0405
73 | ACCCCGGG | -0.207
74 | ATTATCGG | -0.0402
75 | GGGAGTCA | -0.286

Row | Sequence | PBM E-score
76 | CAAATGGA | 0.135
77 | CAAGCCAG | -0.0421
78 | AGCCTATC | -0.179
79 | ACTGTACG | -0.16
80 | ATAACGTG | 0.0753
81 | ACACTGGT | -0.0253
82 | AATCCACC | -0.139
83 | CCGTACAA | 0.216
84 | CGAGCCAG | 0.0425
85 | AAGCTAAA | 0.12
86 | CAGTTGCG | 0.0743
87 | ACAGTTTG | -0.032
88 | CGGTCACC | -0.218
89 | ATTTTGAG | 0.199
90 | AGCGGGCA | -0.334
91 | AACAGCTC | -0.105
92 | GCGCCCCA | -0.216
93 | AGGAAATG | 0.155
94 | TAAGTAAA | 0.00181
95 | ACGATTAT | 0.174
96 | AGCAGGTG | -0.115
97 | AACCGCCT | -0.012
98 | CACAAAAA | 0.195
99 | CACTAGCC | -0.0503
100 | ATGTGCAA | -0.0959

Row | Sequence | PBM E-score
101 | ATATGAAG | 0.0526
102 | GCTGGTTA | -0.0243
103 | CATACCAG | 0.0219
104 | AAAGTTAG | 0.184
105 | ATGTCGCC | 0.115
106 | GTAAGCTA | 0.0896
107 | ACTTCTGA | -0.0769
108 | CAAACAAC | 0.185
109 | ATAAACCC | 0.158
110 | ACTACCTC | -0.14
111 | TAAGCCGA | 0.178
112 | AAGTGAGC | -0.206
113 | CCCACACA | -0.202
114 | ACGACCTG | -0.191
115 | GGGGATGA | -0.219
116 | ACTTACCC | 0.0592
117 | CCTGATGA | 0.0044
118 | GACAACGC | 0.137
119 | AAGAATCG | 0.19
120 | AGCGTCAG | -0.107
121 | ACTTCGTA | -0.114
122 | GCCACCCA | -0.322
123 | ATCAATTG | 0.154
124 | ACCTCGCG | -0.0475
125 | CTCTTTGA | -0.187

Row | Sequence | PBM E-score
126 | ATGAAGGA | 0.134
127 | GAGTCATC | -0.114
128 | AACTCCTT | -0.0416
129 | CTGGATGC | -0.271
130 | ACGTGCAG | -0.139
131 | GTTATGAA | 0.105
132 | CAATTGAA | 0.0128
133 | CCGTTGCA | 0.0113
134 | CGCTGAAG | -0.071
135 | ACCTACCG | -0.0682
136 | AAGCCTAA | 0.019
137 | ATGCATGA | -0.00362
138 | CTAGACTC | -0.309
139 | AAGTCTCC | -0.104
140 | CATGAGCA | 0.0132
141 | CAATTGTG | -0.00904
142 | ATACCGTC | 0.109
143 | AGCCACAC | 0.11
144 | AAACTCAT | 0.168
145 | CGCAGATC | -0.038
146 | CTGATACA | 0.0101
147 | CGACTACG | -0.097
148 | CGAGTCAA | -0.00305
149 | CGGCGCCG | 0.251
150 | TAAACTCA | 0.0791

Row | Sequence | PBM E-score
151 | AACTCTCC | -0.0972
152 | AGACATGC | 0.21
153 | TGCGTGAA | 0.175
154 | CGAAACAG | 0.0379
155 | AAGGGGTA | -0.311
156 | AACACCGA | -0.138
157 | CAGCTGTC | 0.0733
158 | AGGTGCAT | 0.0811
159 | GCTACCAC | -0.175
160 | AATCTACT | 0.0111
161 | GCATCGAA | -0.181
162 | AGCTCGCC | -0.126
163 | GCATCACA | -0.0397
164 | GTCTTGCA | -0.00986
165 | GCCTACAC | -0.184
166 | CTGCGGGA | -0.211
167 | ATTCGTGG | -0.0146
168 | AGACCGTG | -0.0524
169 | ACGTGAGC | -0.164
170 | GAATCCGC | -0.0348
171 | TAACATCA | 0.0674
172 | ACCCAGGG | -0.384
